# Test results reported in the supplement of paper PMC4604168 (melanoma cell lines).
# Some of the results follow. Most values come without repeats; read them as rough.
# Tested on: G361
# Assay: cell count relative to DMSO control; melanoma cells; higher = more viable cells
# Conditions: library dose: standard library concentration; 72 h
# 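Note: cells treated in 1,536-well plates, then fixed and DAPI-stained, with nuclei counted from automated high-throughput microscope images.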
row,Structure (SMILES),cell count
1,"O=C(O)c1ccc(-c2c[nH]c3ncc(-c4ccccc4)cc23)cc1C1CCCC1 + COc1cc2ncnc(Nc3ccc(Oc4ccccc4)cc3)c2cc1OC [SrcI1] (first compound 0.8 µM, partner dose 10 µM)",57%
2,"O=c1[nH]nc(Sc2ncc([N+](=O)[O-])s2)n1-c1ccc2c(c1)OCCO2 + CC(C)C[C@H](NC(=O)[C@H](Cc1ccccc1)NC(=O)c1cnccn1)B(O)O [Bortezomib] (first compound 1 µM, partner dose 0.005 µM)",2.64%
3,"O=c1[nH]nc(Sc2ncc([N+](=O)[O-])s2)n1-c1ccc2c(c1)OCCO2 + CCc1ccc(CCOc2ccc(CC3SC(=O)NC3=O)cc2)nc1 [pioglitazone] (first compound 1 µM, partner dose 10 µM)",95.4%
4,"C[C@@H]1CCN(C(=O)CC#N)C[C@@H]1N(C)c1ncnc2[nH]ccc12 + COc1ccc(-c2ccc3c(N4CCOCC4)nc(N4C[C@@H](C)O[C@@H](C)C4)nc3n2)cc1CO [KU0063794] (first compound 5 µM, partner dose 0.1 µM)",94.4%
5,"C[C@@H]1CCN(C(=O)CC#N)C[C@@H]1N(C)c1ncnc2[nH]ccc12 + O=S(=O)(c1ccccc1)N(CC(F)(F)F)c1ccc(C(O)(C(F)(F)F)C(F)(F)F)cc1 [T0901317] (first compound 5 µM, partner dose 7 µM)",69.4%

# Tested on: IPC-298
# Assay: as above
# Conditions: library dose: standard library concentration; 72 h
row,Structure (SMILES),cell count
1,"O=c1[nH]nc(Sc2ncc([N+](=O)[O-])s2)n1-c1ccc2c(c1)OCCO2 + Cn1nnc2c(C(N)=O)ncn2c1=O [temozolomide] (first compound 1 µM, partner dose 10 µM)",61.3%
2,"Cn1cncc1[C@@](N)(c1ccc(Cl)cc1)c1ccc2c(c1)c(-c1cccc(Cl)c1)cc(=O)n2C [tipifarnib] + O=C(O)C(=O)Nc1sc2c(c1C(=O)O)CCNC2 [TCS401] (first compound 0.05 µM, partner dose 8.33333 µM)",87.5%
3,"O=C(Nc1cccc(Cl)c1)Nc1ncc(CCNc2ncnc3ccsc23)s1 + CCc1ccc(CCOc2ccc(CC3SC(=O)NC3=O)cc2)nc1 [pioglitazone] (first compound 0.004 µM, partner dose 10 µM)",61.3%
4,"O=c1[nH]nc(Sc2ncc([N+](=O)[O-])s2)n1-c1ccc2c(c1)OCCO2 + O=C(O)c1ccc(-c2c[nH]c3ncc(-c4ccccc4)cc23)cc1C1CCCC1 [GSK650394] (first compound 1 µM, partner dose 0.8 µM)",99.4%
5,"O=c1[nH]nc(Sc2ncc([N+](=O)[O-])s2)n1-c1ccc2c(c1)OCCO2 + O=C(Nc1cccc(Cl)c1)Nc1ncc(CCNc2ncnc3ccsc23)s1 [SNS314] (first compound 1 µM, partner dose 0.004 µM)",102%
6,"COc1cc(Nc2ncc(F)c(Nc3ccc4c(n3)NC(=O)C(C)(C)O4)n2)cc(OC)c1OC [Tamatinib] + CCCCCCCCCCCC1=C(O)C(=O)C=C(O)C1=O [Embelin] (first compound 2 µM, partner dose 6 µM)",74.8%
7,"CC1(C)NC(=O)N(c2ccc([N+](=O)[O-])c(C(F)(F)F)c2)C1=O [nilutamide] + O=C1NC(=O)/C(=C/c2ccc(-c3ccc(F)cc3O)o2)S1 [AS252424] (first compound 5 µM, partner dose 5 µM)",85.3%
8,"Cn1cncc1[C@@](N)(c1ccc(Cl)cc1)c1ccc2c(c1)c(-c1cccc(Cl)c1)cc(=O)n2C [tipifarnib] + O=C(Nc1ccccc1)c1cc([N+](=O)[O-])ccc1Cl [GW9662] (first compound 0.05 µM, partner dose 10 µM)",83.5%
9,"O=c1[nH]nc(Sc2ncc([N+](=O)[O-])s2)n1-c1ccc2c(c1)OCCO2 + C[C@@H](N)c1ccc(C(=O)Nc2ccnc3[nH]ccc23)cc1 [RKI983] (first compound 1 µM, partner dose 2 µM)",99.2%
10,"O=C(O)c1ccc(-c2c[nH]c3ncc(-c4ccccc4)cc23)cc1C1CCCC1 + COc1cc(N2CCC(N3CCN(C)CC3)CC2)ccc1Nc1ncc(Cl)c(Nc2ccccc2S(=O)(=O)C(C)C)n1 [NVP-TAE684] (first compound 0.8 µM, partner dose 0.4 µM)",93.9%
11,"O=c1[nH]nc(Sc2ncc([N+](=O)[O-])s2)n1-c1ccc2c(c1)OCCO2 + COc1cc(Nc2ncc(F)c(Nc3ccc4c(n3)NC(=O)C(C)(C)O4)n2)cc(OC)c1OC [Tamatinib] (first compound 1 µM, partner dose 2 µM)",87.5%
12,"O=c1[nH]nc(Sc2ncc([N+](=O)[O-])s2)n1-c1ccc2c(c1)OCCO2 + COc1cc(N2CCC(N3CCN(C)CC3)CC2)ccc1Nc1ncc(Cl)c(Nc2ccccc2S(=O)(=O)C(C)C)n1 [NVP-TAE684] (first compound 1 µM, partner dose 0.4 µM)",95.7%
13,"COc1cc(Nc2ncc(F)c(Nc3ccc4c(n3)NC(=O)C(C)(C)O4)n2)cc(OC)c1OC [Tamatinib] + CC1(C)NC(=O)N(c2ccc([N+](=O)[O-])c(C(F)(F)F)c2)C1=O [nilutamide] (first compound 2 µM, partner dose 5 µM)",83.1%
14,"O=C(O)c1ccc(-c2c[nH]c3ncc(-c4ccccc4)cc23)cc1C1CCCC1 + COc1ccc2c(c1)CCC1C2CCC2(C)C(NCCCCCCN3C(=O)C=CC3=O)CCC12 [U73122] (first compound 0.8 µM, partner dose 2 µM)",87.8%
15,"O=c1[nH]nc(Sc2ncc([N+](=O)[O-])s2)n1-c1ccc2c(c1)OCCO2 + CO[C@@H]1[C@H](N(C)C(=O)c2ccccc2)C[C@H]2O[C@]1(C)n1c3ccccc3c3c4c(c5c6ccccc6n2c5c31)C(=O)NC4 [Midostaurin] (first compound 1 µM, partner dose 0.4 µM)",64.4%
16,"Cn1cncc1[C@@](N)(c1ccc(Cl)cc1)c1ccc2c(c1)c(-c1cccc(Cl)c1)cc(=O)n2C [tipifarnib] + NCC(=O)Nc1ccc(-n2nc(C(F)(F)F)cc2-c2ccc3c(ccc4ccccc43)c2)cc1 [OSU03012] (first compound 0.05 µM, partner dose 5 µM)",62.9%
17,"C[C@@H]1CCN(C(=O)CC#N)C[C@@H]1N(C)c1ncnc2[nH]ccc12 + Cc1cc([N+](=O)[O-])ccc1NS(=O)(=O)c1cc(Cl)ccc1Cl [FH535] (first compound 5 µM, partner dose 5 µM)",54.3%
18,"CC1(C)NC(=O)N(c2ccc([N+](=O)[O-])c(C(F)(F)F)c2)C1=O [nilutamide] + N#Cc1c(O)c2c(-c3ccc(-c4ccccc4O)cc3)csc2[nH]c1=O [A769662] (first compound 5 µM, partner dose 10 µM)",116%
19,"O=c1[nH]nc(Sc2ncc([N+](=O)[O-])s2)n1-c1ccc2c(c1)OCCO2 + Cc1ccc(Nc2nccc(N(C)c3ccc4c(C)n(C)nc4c3)n2)cc1S(N)(=O)=O [Pazopanib] (first compound 1 µM, partner dose 2 µM)",73.6%
20,"O=C(Nc1cccc(Cl)c1)Nc1ncc(CCNc2ncnc3ccsc23)s1 + Oc1cc(-c2nc(-c3ccccc3)[nH]c2-c2ccncc2)ccc1Cl [L779450] (first compound 0.004 µM, partner dose 1 µM)",73.7%
21,"COc1cc(Nc2ncc(F)c(Nc3ccc4c(n3)NC(=O)C(C)(C)O4)n2)cc(OC)c1OC [Tamatinib] + CCN(CC)CCCCNc1ncc2cc(-c3cc(OC)cc(OC)c3)c(NC(=O)NC(C)(C)C)nc2n1 [PD173074] (first compound 2 µM, partner dose 0.5 µM)",89.4%
22,"O=c1[nH]nc(Sc2ncc([N+](=O)[O-])s2)n1-c1ccc2c(c1)OCCO2 + Nc1ncn([C@H]2C[C@H](O)[C@@H](CO)O2)c(=O)n1 [decitabine] (first compound 1 µM, partner dose 0.5 µM)",60.9%
23,"O=c1[nH]nc(Sc2ncc([N+](=O)[O-])s2)n1-c1ccc2c(c1)OCCO2 + C[C@]1(O)C[C@@H](c2nc(-c3ccc4ccc(-c5ccccc5)nc4c3)c3c(N)nccn32)C1 [OSI906] (first compound 1 µM, partner dose 2 µM)",96.8%
24,"O=c1[nH]nc(Sc2ncc([N+](=O)[O-])s2)n1-c1ccc2c(c1)OCCO2 + CCCCCCCCc1ccc(CCC(N)(CO)CO)cc1 [fingolimod] (first compound 1 µM, partner dose 10 µM)",39.3%
25,"O=c1[nH]nc(Sc2ncc([N+](=O)[O-])s2)n1-c1ccc2c(c1)OCCO2 + COc1ccc(-c2ccc3c(N4CCOCC4)nc(N4C[C@@H](C)O[C@@H](C)C4)nc3n2)cc1CO [KU0063794] (first compound 1 µM, partner dose 0.1 µM)",71.5%
26,"COc1cc(Nc2ncc(F)c(Nc3ccc4c(n3)NC(=O)C(C)(C)O4)n2)cc(OC)c1OC [Tamatinib] + c1cc(-c2cnn3cc(-c4ccc(OCCN5CCCCC5)cc4)cnc23)ccn1 [Dorsomorphin] (first compound 2 µM, partner dose 2 µM)",69%
27,"O=C(Nc1cccc(Cl)c1)Nc1ncc(CCNc2ncnc3ccsc23)s1 + O=C1NC(=O)/C(=C/c2ccc(-c3ccc(F)cc3O)o2)S1 [AS252424] (first compound 0.004 µM, partner dose 5 µM)",67.4%
